According to PubChem BioAssay AID1460 (National Center for Advancing Translational Sciences (NCATS), 2008):
Several values for one entry are separate records, joined by “and”; a condition that tells them apart may be missing. Equal entries are not always repeated. Out of some 270,000 compounds screened, about 5,800 (2.1%) were called active. The shares of active, inactive and inconclusive entries below differ from those in the screen. Calls follow the shape of the dose curve; as a rule, active = well fitted inhibition curve with a large enough effect; inconclusive = small, poorly fitted or top-dose-only effect; inactive = flat fitted curve, though single readings scatter. Potencies of inconclusive entries are doubtful fits and often do not repeat.

These compounds were tested against Microtubule-associated protein tau (Homo sapiens) (UniProt P10636) (assay: qHTS for Inhibitors of Tau Fibril Formation, Thioflavin T Binding). Settings: recombinant tau K18 P301L, heparin-induced fibrillization, ThT fluorescence; series mostly up to 57.4 µM.
Chain of UniProt P10636 (P10636 whole entry, looked up): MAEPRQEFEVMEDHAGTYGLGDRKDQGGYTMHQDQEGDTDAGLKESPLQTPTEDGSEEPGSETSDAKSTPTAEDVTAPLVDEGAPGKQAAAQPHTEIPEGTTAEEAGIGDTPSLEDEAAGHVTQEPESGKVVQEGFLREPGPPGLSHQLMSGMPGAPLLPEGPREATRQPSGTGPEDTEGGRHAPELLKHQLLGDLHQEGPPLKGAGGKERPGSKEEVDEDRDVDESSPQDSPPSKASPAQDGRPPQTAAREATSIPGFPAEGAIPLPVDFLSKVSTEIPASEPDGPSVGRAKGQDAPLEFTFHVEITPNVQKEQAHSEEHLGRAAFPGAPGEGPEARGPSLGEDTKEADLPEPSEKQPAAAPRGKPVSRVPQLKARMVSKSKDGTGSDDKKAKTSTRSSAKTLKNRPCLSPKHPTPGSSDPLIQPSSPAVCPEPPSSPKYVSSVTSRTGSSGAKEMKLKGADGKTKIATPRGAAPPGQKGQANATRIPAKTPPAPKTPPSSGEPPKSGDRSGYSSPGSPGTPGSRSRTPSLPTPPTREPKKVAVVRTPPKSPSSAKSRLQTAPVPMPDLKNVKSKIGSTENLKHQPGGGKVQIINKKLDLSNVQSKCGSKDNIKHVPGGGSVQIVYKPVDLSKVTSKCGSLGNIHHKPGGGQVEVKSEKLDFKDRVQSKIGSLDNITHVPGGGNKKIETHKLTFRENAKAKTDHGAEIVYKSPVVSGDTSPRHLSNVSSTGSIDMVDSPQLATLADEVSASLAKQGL
In short: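 ThT emission at 510 nm, taken 1 hr after adding 30 uM dye, quantifies aggregates formed when 20 uM heparin acts on human tau K18 P301L for 6 hr at 37 C.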
Also: nearly all actives have a fitted effect of over 55% in size.
Potency is read from the fitted curve at half-maximal effect; tags tell the direction and shape of the fitted curve.

| Structure (SMILES) | Potency |
| --- | --- |
| Cc1ccccc1-c1nn2c(=O)cc(CN3CCN(C(=O)c4ccc(C(C)(C)C)cc4)CC3)nc2s1 | inconclusive: 11.2 µM [inhibitor, partial curve] |
| CCOC(=O)N1CCc2c(sc3c2c(=O)n(CCc2ccccc2)c(=O)n3Cc2ccc(F)cc2)C1 | inactive |
| COc1ccc(C(=O)CN2C(=O)N(c3ccc(C(C)=O)cc3)S(=O)(=O)c3ccccc32)cc1 | inactive |
| O=C1Cc2ccccc2Sc2c(OCCN3CCCCC3)cccc21 | inactive |
| CCOC(=O)CSc1nc2ccc(C)cc2cc1C#N | inconclusive: 1.78 µM [inhibitor, full curve] |
| COc1ccc2cc(-c3csc(-c4cccnc4)n3)ccc2c1 | inconclusive: 3.98 µM [inhibitor, full curve, poor fit] |
| COc1cc(NC(=O)CSc2nc3nc(C)c(Cc4ccc(C)cc4)c(C)n3n2)cc(OC)c1 | inconclusive: 2.82 µM [inhibitor, partial curve] |
| CC(C)NS(=O)(=O)c1ccc2nc(NC(=O)c3cncc(Br)c3)sc2c1 | inactive |
| O=C(O)CC/C(=N\Nc1ccc([N+](=O)[O-])cc1S(=O)(=O)N1CCOCC1)c1cccs1 | inconclusive: 14.1 µM [inhibitor, partial curve] |
| CC(C)c1c(O)ccc2c1CCC1C(C)(C)CCC[C@@]21C (stereo partly specified) | inconclusive: 15.8 µM [inhibitor, partial curve] |
| Clc1nssc1=Nc1ccc(Br)cc1 | active: 12.6 µM |
| COc1cccc(-n2c(SCC(=O)NC3CCCCC3)nc3n[nH]c(C)c3c2=N)c1 | inconclusive: 12.6 µM [inhibitor, partial curve] |
| CCOc1ccc(C(CC(=O)O)NC(=O)c2cccs2)cc1 (stereo unspecified) | inactive |
| CCC(C)Nc1c2c(nc3c(-c4ccccc4)c(C)nn13)CCC2 (stereo unspecified) | inconclusive: 39.8 µM [inhibitor, single point] |
| Cc1cc(=O)oc2cc(OCC3CC(c4ccc(N(C)C)cc4)=NO3)ccc12 (stereo unspecified) | inconclusive: 0.398 µM [inhibitor, full curve] |
| Cc1cc2oc(=O)cc(-c3ccccc3)c2c(C)c1-c1sccc1C=O | inconclusive: 39.8 µM [inhibitor, partial curve] |
| COc1ccccc1N1C(=O)C2ON(c3ccccc3)C(c3ccc(N(C)C)cc3)C2C1=O (stereo unspecified) | inconclusive: 8.91 µM [inhibitor, full curve] |
| Fc1ccc2c(c1)/C(=N/Nc1ccccn1)CCS2 | inactive |
| O=C(CSc1nc2ccccc2c(=O)n1CCC(=O)N1CCCCC1)NCc1ccccc1 | inactive |
| CCOC(=O)c1ccccc1NS(=O)(=O)c1c(-c2ccc(C)cc2)csc1C(=O)OC | inactive |
| Cn1cccc1C(=O)NC(=O)COC(=O)c1cc(S(=O)(=O)N2CCCCC2)ccc1Cl | inactive |
| COc1ccccc1CNS(=O)(=O)c1c(C)nc2sccn2c1=O | inactive |
| CSc1nnc(-c2cccc(NC(=S)NN)c2)o1 | inconclusive: 25.1 µM [inhibitor, partial curve] |
| CN(CCC#N)c1ccc(/C=C(\C#N)c2ccccn2)cc1 | inconclusive: 25.1 µM [inhibitor, partial curve] |

| Structure (SMILES) | Potency |
| --- | --- |
| O=C(Nc1ccc(Cl)c(Cl)c1)Nc1ccc(Br)cc1F | inconclusive: 8.91 µM [activator, full curve, poor fit] |
| CCc1ccc(-c2cc(C(F)(F)F)n3nc(C(=O)Nc4c(C)nn(Cc5ccccc5C)c4C)cc3n2)s1 | inconclusive: 20 µM [inhibitor, partial curve] |
| Cn1c(=O)c(C(=O)COC(=O)c2cc(-c3ccco3)nc3ccccc23)c(N)n(CC2CC2)c1=O | inconclusive: 14.1 µM [inhibitor, partial curve] and inconclusive: 17.8 µM [inhibitor, partial curve] |
| O=C1C=C(N(CCO)Cc2ccccc2)c2ccccc2C1=O | active: 12.6 µM |
| O=C1Nc2ccccc2N2CCCC12 (stereo unspecified) | inconclusive: 3.16 µM [inhibitor, partial curve] |
| Cc1csc(NC(=O)c2ccncc2)n1 | inconclusive: 39.8 µM [inhibitor, single point] |
| O=C(Nc1cccc2cccc(NC(=O)c3ccco3)c12)c1ccco1 | inconclusive: 14.1 µM [inhibitor, partial curve] |
| N#Cc1c(N)nc(SCC(=O)C23CC4CC(CC(C4)C2)C3)c(C#N)c1-c1ccc(Cl)cc1 | inactive |
| Nc1c(C(=O)NC2CC2)sc2nc3c(c(-c4ccco4)c12)CC/C3=C/c1ccco1 | active: 8.91 µM |
| Cn1cc([C@@H]2C[C@H]3CN(Cc4cccc(Cl)c4)C(=O)[C@]34CCCN24)c2ccccc21 | inconclusive: 12.6 µM [inhibitor, partial curve] |
| Cc1nc(-c2ccccc2)sc1CCNC(=O)c1ccco1 | inconclusive: 10 µM [inhibitor, partial curve] |
| Cc1nc(SCC(=O)O)c2oc3ccccc3c2n1 | inactive |
| Cc1ccc(S(=O)(=O)Nc2c(C)n(C)n(-c3ccccc3)c2=O)cc1 | inactive |
| CC(=O)Oc1ccc(Cl)cc1/C=C/c1ccc2ccccc2n1 | inconclusive: 2.24 µM [inhibitor, full curve] |
| CCOc1ccc2nc(NC(=O)NC3CCCCC3)sc2c1 | inconclusive: 2.51 µM [inhibitor, full curve] |
| COc1ccc(/C=C(/C#N)c2nc(-c3ccc(-c4ccccc4)cc3)cs2)cc1 | inconclusive: 2.82 µM [inhibitor, full curve] |
| CCOC(=O)c1c(NC(=O)/C=C/C(=O)O)sc(C)c1-c1ccc(F)cc1 | inconclusive: 31.6 µM [inhibitor, partial curve, poor fit] |
| CCN(CCCNC(=O)c1cc2cc3cc(C)ccc3nc2s1)c1cccc(C)c1 | inconclusive: 3.98 µM [inhibitor, full curve] |
| O=C(NCCc1c[nH]c2ccccc12)C(=O)NCC1OCCN1S(=O)(=O)c1ccc(F)cc1 (stereo unspecified) | inconclusive: 1.41 µM [inhibitor, full curve, poor fit] |
| O=C(OCc1ccccc1Cl)c1ccc(-c2nnn(Cc3ccccc3)n2)cc1 | inactive |
| CC(C)Oc1ccc(CNC(=O)c2ccc(NC(=O)c3nsc4ccccc34)cc2)cc1 | inactive |
| C/C(CC(=O)NC1CCCC1)=N\NC(=O)C1CCCCC1 | inactive |
| COc1ccc(OC)c(C(c2nnnn2C2CCCC2)N2CCN(c3ccccc3F)CC2)c1 (stereo unspecified) | inactive |
| Brc1ccc2nc(N3CCCC3)sc2c1 | inconclusive: 11.2 µM [inhibitor, partial curve] |

| Structure (SMILES) | Potency |
| --- | --- |
| O[C@@H](c1ccccc1)C1CCN(CCc2ccccc2)CC1 | inactive |
| CCOC(=O)C1=C(C)OC(N)=C(C#N)C1c1c(C)nn(-c2ccc(C)cc2)c1Cl (stereo unspecified) | inconclusive: 6.31 µM [inhibitor, partial curve, poor fit] |
| CCN(CC)CCOc1ccc(/C(=C(\Cl)c2ccccc2)c2ccccc2)cc1 | inconclusive: 39.8 µM [inhibitor, single point] |
| O=C(O)CC1S/C(=N/N=C/c2ccc(Br)cc2)N(c2ccccc2)C1=O (stereo unspecified) | inconclusive: 22.4 µM [inhibitor, partial curve] |
| CCC(=O)Nc1sc2c(c1C#N)CCC2 | inactive |
| Cc1ccccc1C(=O)N/N=C/c1ccc([N+](=O)[O-])s1 | inconclusive: 17.8 µM [inhibitor, partial curve] |
| CCc1ccc(-n2nc(CO)c(C(=O)NCc3ccccn3)n2)cc1 | inactive |
| CCN1CCS/C1=C\C=C\C1=[N+](CC)CCS1 | inconclusive: 25.1 µM [inhibitor, single point] |
| COc1ccc(OC)c2sc(N3CCc4ccccc4C3)nc12 | inconclusive: 15.8 µM [inhibitor, partial curve] |
| COc1ccc(C2=NOC3(CC(=O)N(c4ccc(F)cc4)C3=O)C2)c(OC)c1 (stereo unspecified) | inactive |
| CCc1ccccc1N(CC)C(=O)c1cc2c(s1)-c1ccccc1OC2 | inconclusive: 14.1 µM [inhibitor, partial curve] |
| S=C(NCc1ccncc1)NC1CCCC1 | inactive |
| COc1cccc(N2CC(C(=O)Nc3nnc(SCC(=O)c4ccccc4)s3)CC2=O)c1 (stereo unspecified) | inactive |
| O=C(c1ccc(N2CCCCC2)c([N+](=O)[O-])c1)N(Cc1ccccc1)c1ccccn1 | inconclusive: 14.1 µM [inhibitor, partial curve, poor fit] |
| COc1ccc(C(=O)NNc2cc(C)nc(NNC(=O)c3ccc(OC)cc3)n2)cc1 | inconclusive: 22.4 µM [inhibitor, partial curve] |
| CCOc1ccccc1NC(=O)C(NS(=O)(=O)c1cccc2nsnc12)c1ccccc1 (stereo unspecified) | inactive |
| CC(C)C(=O)Nc1ccc(N2CCCC2)cc1 | inconclusive: 31.6 µM [inhibitor, partial curve] |
| CCOc1ccc(N=C2NC(=O)/C(=C/C(=O)OC)S2)cc1 | inconclusive: 15.8 µM [inhibitor, partial curve] |
| COc1ccc(N2CCN(c3nc(-c4ccccc4F)nc4ccccc34)CC2)cc1 | inconclusive: 39.8 µM [inhibitor, single point] |
| O=C(CN(c1cccc(Br)c1)S(=O)(=O)c1ccccc1)N1CCc2ccccc2C1 | inactive |
| N#CCCn1[nH]c(-c2ccccc2)cc1=O | inconclusive: 1 µM [inhibitor, full curve] |
| O=C(N/N=C/c1cn(-c2ccccc2)nc1-c1ccc(F)cc1)c1ccc2c(c1)OCO2 | inconclusive: 14.1 µM [inhibitor, partial curve] |
| O=C(Nc1cc(Cl)cc(Cl)c1)c1cccc(OC(F)F)c1 | inconclusive: 8.91 µM [inhibitor, partial curve] |
